Experimental data taken from PubChem BioAssay (Tox21).
Inconclusive means that the source gave no clear call. Such entries were picked first, then a sample of the others. For some of these results: A potency beside an inconclusive call is a rough fit, not a confirmed value. Calls of active or inactive are those of the source. Unless noted, the call rests on the fitted dose curve; in most records, active means well fitted curve in the direction sought with a large enough effect in the repeat runs; inconclusive means weak or mixed curves; inactive means no such curve, though single readings can be large; an effect the other way counts as inactive or inconclusive.

What was measured:
[1] = target: Aryl hydrocarbon receptor (Homo sapiens) (UniProt P35869); test: qHTS assay to identify small molecule that activate the aryl hydrocarbon receptor (AhR) signaling pathway (AID 743085); further: potency means the concentration at half of the fitted maximal effect; nearly all actives have a fitted effect of over 15% in size
Summary of the method: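 HepG2 cells (HG2L7.5c1) stably carrying a firefly luciferase reporter driven by 20 dioxin responsive elements were exposed to compound for 24 h at 37C after a 5 h settling period; luminescence rise (ONE-Glo) indicated activation.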

[2] = qHTS assay to identify small molecule that activate the aryl hydrocarbon receptor (AhR) signaling pathway - cell viability counter screen (AID 743086);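 further: HepG2 liver cells carrying the AhR DRE luciferase reporter; on the % scale 0 is the no-effect control and ±100 the full control effect; nearly all actives have a fitted effect of over 45% in size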
Summary of the method: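 HepG2-AhR-luc (HG2L7.5c1) cells, 4000/well, treated 24 h at 37 C with compound; viability measured as CellTiter-Fluor fluorescence after 30 min in the same wells as the luciferase read.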

[3] = target: Peroxisome proliferator-activated receptor gamma (Homo sapiens) (UniProt P37231); test: qHTS assay to identify small molecule agonists of the peroxisome proliferator-activated receptor gamma (PPARg) signaling pathway (AID 743094; active means well fitted activation curve with a large enough effect in the signal ratio in the repeat runs, not every such curve was filed as active; inconclusive means weak or mixed curves, or effect the other way; inactive means no such curve, though single readings can be large or run the other way; the % refers to the signal ratio; further: potency means the concentration at half of the fitted maximal effect; on activation: on the % scale 0 is the no-effect control and ±100 the full control effect); conditions: HEK293H PPARg-UAS-bla, beta-lactamase FRET ratio, 17 h; activation: at 57 µM (top of the series) unless noted
Summary of the method: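 Stably transfected HEK293H cells (GeneBLAzer PPARg UAS-bla) were incubated with test substances for 17 h at 37C after a 5 h pre-incubation; beta-lactamase activity was then detected by FRET substrate fluorescence.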

[4] = target: Peroxisome proliferator-activated receptor gamma (Homo sapiens) (UniProt P37231); test: qHTS assay to identify small molecule antagonists of the peroxisome proliferator-activated receptor gamma (PPARg) signaling pathway (AID 743191; calls by dose curve; further: nearly all actives have a fitted effect of over 30% in size; further: potency means the concentration at half of the fitted maximal effect; on ratio activity, negative = inhibition: on the % scale 0 is the no-effect control and ±100 the full control effect); conditions: HEK293H PPARg-UAS-bla, beta-lactamase ratio, antagonist, 17 h; ratio activity, negative = inhibition: at 62.6 µM (top of the series) unless noted
Summary of the method: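 GeneBLAzer PPARg UAS-bla HEK293H cells, 5 h post-plating, exposed to compounds 17 h at 37C. LiveBLAzer B/G FRET substrate added for 1 h at room temperature; beta-lactamase reporter read by fluorescence intensity.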

[5] = qHTS assay to identify small molecule antagonists of the peroxisome proliferator-activated receptor gamma (PPARg) signaling pathway - cell viability counter screen (AID 743194); conditions: PPARg-bla HEK293H viability, CellTiter-Glo luminescence, 17 h, co-treated with 50 nM rosiglitazone; activity change, negative = cytotoxicity: at 62.6 µM (top of the series) unless noted; further: potency means the concentration at half of the fitted maximal effect; nearly all actives have a fitted effect of over 55% in size
Summary of the method: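 Cytotoxicity counter screen in PPARg-bla HEK293H cells, same wells as reporter assay. Compounds plus 50 nM rosiglitazone (final) for 17 h at 37 C, then viability read by CellTiter-Glo luminescence.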

[6] = qHTS assay for small molecule agonists of the antioxidant response element (ARE) signaling pathway (AID 743202; active means well fitted activation curve with a large enough effect in the signal ratio in the repeat runs, not every such curve was filed as active; inconclusive means weak or mixed curves, or effect the other way; inactive means no such curve, though single readings can be large or run the other way; the % refers to the signal ratio; further: potency means the concentration at half of the fitted maximal effect; on activation: on the % scale 0 is the no-effect control and ±100 the full control effect); conditions: HepG2 ARE-bla reporter, beta-lactamase FRET, 16 h; activation: at 73.3 µM (top of the series) unless noted
Summary of the method: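 ARE-bla HepG2 cells (beta-lactamase reporter under the antioxidant response element), plated 5 hours, then exposed to compounds 16 hours at 37 C. LiveBLAzer B/G FRET substrate added for 2 hours at room temperature; fluorescence intensity read.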

[7] = qHTS assay for small molecule activators of the heat shock response signaling pathway - cell viability counter screen (AID 743209); conditions: HSE-bla HeLa viability, CellTiter-Glo luminescence, 5 h; activity change, negative = cytotoxicity: at 62.6 µM (top of the series) unless noted; further: nearly all actives have a fitted effect of over 50% in size; further: potency means the concentration at half of the fitted maximal effect
Summary of the method: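 Quantitative HTS format, Tox21 10K library. HeLa cells carrying an HSE-driven beta-lactamase reporter were treated 5 h at 37 C, then assessed for viability by CellTiter-Glo luminescence.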

[8] = qHTS assay to identify small molecule agonists of the peroxisome proliferator-activated receptor delta (PPARd) signaling pathway - cell viability counter screen (AID 743211); conditions: PPARd-bla HEK293H viability, CellTiter-Glo luminescence, 17 h; activity change, negative = cytotoxicity: at 62.6 µM (top of the series) unless noted; further: potency means the concentration at half of the fitted maximal effect; nearly all actives have a fitted effect of over 55% in size
Summary of the method: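 PPARd-bla HEK293H cells (UAS-beta-lactamase reporter) were treated with compounds for 17 h at 37 C. Viability was then read in the same wells by CellTiter-Glo luminescence after 30 min at room temperature.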

[9] = qHTS assay to identify small molecule antagonists of the peroxisome proliferator-activated receptor delta (PPARd) signaling pathway - cell viability counter screen (AID 743213); conditions: PPARd-bla HEK293H viability, CellTiter-Glo luminescence, 17 h; viability change, negative = cytotoxic: at 62 µM (top of the series) unless noted; further: potency means the concentration at half of the fitted maximal effect; nearly all actives have a fitted effect of over 50% in size
Summary of the method: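 Agonist-stimulated (L165041, 300 nM final) HEK293H PPARd UAS-bla cells are exposed to compounds for 17 h at 37 C, and ATP-based luminescence (CellTiter-Glo) from the same wells reports cytotoxicity.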

[10] = qHTS assay to identify small molecule agonists of the farnesoid-X-receptor (FXR) signaling pathway - cell viability counter screen (AID 743218); conditions: FXR-bla HEK293T viability, CellTiter-Glo luminescence, 16 h; viability change, negative = cytotoxic: at 62.6 µM (top of the series) unless noted; further: potency means the concentration at half of the fitted maximal effect; nearly all actives have a fitted effect of over 45% in size
Summary of the method: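 In GeneBLAzer FXR-UAS-bla HEK 293T cells, compounds act for 16 h at 37 C. Cell viability is then scored in the reporter wells by CellTiter-Glo, 30 min at RT, luminescence.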

[11] = qHTS assay to identify small molecule antagonists of the farnesoid-X-receptor (FXR) signaling pathway - cell viability counter screen (AID 743221; active means well fitted cell-killing curve with a large enough effect in the repeat runs, not every such curve was filed as active; inconclusive means weak or mixed curves, or effect the other way; inactive means no such curve, though single readings can be large or run the other way; further: potency means the concentration at half of the fitted maximal effect; nearly all actives have a fitted effect of over 50% in size); conditions: FXR-bla HEK293T viability, CellTiter-Glo luminescence, 16 h; activity change, negative = cytotoxicity: at 62.6 µM (top of the series) unless noted
Summary of the method: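 FXR-UAS-bla HEK 293T cells were treated with test compounds plus chenodeoxycholic acid (50 uM final) for 16 h at 37 C. Cell viability in the same wells was then read as CellTiter-Glo luminescence after 30 min at room temperature.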

[12] = qHTS assay to identify small molecule agonists of the vitamin D receptor (VDR) signaling pathway - cell viability counter screen (AID 743224); conditions: VDR-bla HEK293T viability, CellTiter-Glo luminescence, 16 h; activity change, negative = cytotoxicity: at 62.6 µM (top of the series); further: potency means the concentration at half of the fitted maximal effect; nearly all actives have a fitted effect of over 50% in size
Summary of the method: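 VDR-bla cell line, quantitative HTS format; 16 h compound incubation (37C, 5% CO2); ATP-based CellTiter-Glo luminescence measured in the reporter assay wells.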

[13] = target: Peroxisome proliferator-activated receptor delta (Homo sapiens) (UniProt Q03181); test: qHTS assay to identify small molecule agonists of the peroxisome proliferator-activated receptor delta (PPARd) signaling pathway (AID 743212; calls by dose curve; further: potency means the concentration at half of the fitted maximal effect); conditions: HEK293H PPARd-UAS-bla, beta-lactamase FRET ratio, 17 h; activation: at 62.6 µM (top of the series) unless noted
Summary of the method: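 GeneBLAzer UAS-bla HEK293H cells carrying a PPARδ construct were exposed to compounds at 37 °C. Beta-lactamase activity was read by FRET fluorescence after 2 h at room temperature with LiveBLAzer B/G substrate.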

[14] = target: Peroxisome proliferator-activated receptor delta (Homo sapiens) (UniProt Q03181); test: qHTS assay to identify small molecule antagonists of the peroxisome proliferator-activated receptor delta (PPARd) signaling pathway (AID 743215; active means well fitted inhibition curve with a large enough effect in the signal ratio in the repeat runs, not every such curve was filed as active; inconclusive means weak or mixed curves, or effect the other way; inactive means no such curve, though single readings can be large or run the other way; the % refers to the signal ratio; further: on the % scale 0 is the no-effect control and ±100 the full control effect); conditions: HEK293H PPARd-UAS-bla, beta-lactamase FRET ratio, antagonist, 17 h; ratio activity, negative = inhibition: at 62 µM (top of the series) unless noted
Summary of the method: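 Antagonist-mode beta-lactamase reporter screen: HEK293H cells with UAS-bla under PPARd control, stimulated by 300 nM L165041 (final) alongside test compound for 17 h at 37 C, then FRET fluorescence after 2 h substrate incubation.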

[15] = target: Vitamin D3 receptor (Homo sapiens) (UniProt P11473); test: qHTS assay to identify small molecule agonists of the vitamin D receptor (VDR) signaling pathway (AID 743222; calls by dose curve; further: potency means the concentration at half of the fitted maximal effect); conditions: HEK293T VDR-UAS-bla, beta-lactamase FRET ratio, 16 h; activation: at 63.5 µM (top of the series) unless noted
Summary of the method: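 Agonist activity measured in VDR-bla reporter cells. Exposure 16 h, 37C, 5% CO2; detection by B/G FRET substrate, 2 h RT.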

[16] = target: Vitamin D3 receptor (Homo sapiens) (UniProt P11473); test: qHTS assay to identify small molecule antagonists of the vitamin D receptor (VDR) signaling pathway (AID 743223; active means well fitted inhibition curve with a large enough effect in the signal ratio in the repeat runs, not every such curve was filed as active; inconclusive means weak or mixed curves, or effect the other way; inactive means no such curve, though single readings can be large or run the other way; the % refers to the signal ratio; further: potency means the concentration at half of the fitted maximal effect); conditions: VDR-UAS-bla HEK293T, beta-lactamase FRET ratio, 16 h; activity change, negative = inhibition: at 61 µM (top of the series) unless noted
Summary of the method: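 VDR-bla cells were plated, incubated 4 h at 37C, then given compound and 1alpha,25-dihydroxyvitamin D3 (3 nM final). After 16 h at 37C, LiveBLAzer B/G FRET substrate was added for 2 h at room temperature and fluorescence read.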
Tags describe the fitted curve by direction and shape or compound fluorescence and quenching.

UniProt P37231, sequence (P37231 whole entry, looked up): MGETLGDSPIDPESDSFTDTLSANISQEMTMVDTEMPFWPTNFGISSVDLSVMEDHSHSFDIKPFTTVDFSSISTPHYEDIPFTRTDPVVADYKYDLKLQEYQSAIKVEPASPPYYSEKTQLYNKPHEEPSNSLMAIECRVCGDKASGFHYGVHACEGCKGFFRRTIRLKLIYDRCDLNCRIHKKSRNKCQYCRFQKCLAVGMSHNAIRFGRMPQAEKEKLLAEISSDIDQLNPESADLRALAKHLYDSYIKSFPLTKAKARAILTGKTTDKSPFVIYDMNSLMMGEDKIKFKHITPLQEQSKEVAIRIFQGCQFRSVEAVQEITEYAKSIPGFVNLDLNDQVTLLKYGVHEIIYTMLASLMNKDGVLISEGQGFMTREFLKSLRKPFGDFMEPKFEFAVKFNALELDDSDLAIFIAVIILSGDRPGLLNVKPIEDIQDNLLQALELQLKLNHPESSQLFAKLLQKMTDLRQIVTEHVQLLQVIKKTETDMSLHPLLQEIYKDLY
UniProt P35869, sequence (P35869 whole entry, looked up): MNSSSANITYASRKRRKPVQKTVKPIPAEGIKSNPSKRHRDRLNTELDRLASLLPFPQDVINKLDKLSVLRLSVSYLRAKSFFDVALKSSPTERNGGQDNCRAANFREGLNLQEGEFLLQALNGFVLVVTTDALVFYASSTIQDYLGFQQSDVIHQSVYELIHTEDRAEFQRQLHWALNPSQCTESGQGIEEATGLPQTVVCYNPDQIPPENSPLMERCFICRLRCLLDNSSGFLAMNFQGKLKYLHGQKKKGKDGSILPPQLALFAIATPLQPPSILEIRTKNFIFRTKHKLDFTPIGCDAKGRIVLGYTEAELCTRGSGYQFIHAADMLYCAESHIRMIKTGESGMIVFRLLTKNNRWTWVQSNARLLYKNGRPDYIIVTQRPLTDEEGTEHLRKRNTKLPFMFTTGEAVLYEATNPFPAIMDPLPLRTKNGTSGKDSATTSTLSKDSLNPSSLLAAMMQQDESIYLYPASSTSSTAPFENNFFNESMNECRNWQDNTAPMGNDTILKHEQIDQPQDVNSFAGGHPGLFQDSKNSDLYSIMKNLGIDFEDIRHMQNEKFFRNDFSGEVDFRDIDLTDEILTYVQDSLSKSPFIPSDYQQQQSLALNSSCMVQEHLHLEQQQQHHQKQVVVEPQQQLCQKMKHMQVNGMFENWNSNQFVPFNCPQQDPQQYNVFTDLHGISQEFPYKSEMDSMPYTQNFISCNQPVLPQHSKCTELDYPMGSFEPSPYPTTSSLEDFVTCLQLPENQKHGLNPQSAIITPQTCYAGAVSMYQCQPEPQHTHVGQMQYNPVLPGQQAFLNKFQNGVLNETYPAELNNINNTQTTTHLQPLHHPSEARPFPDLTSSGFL
UniProt P11473, sequence (P11473 whole entry, looked up): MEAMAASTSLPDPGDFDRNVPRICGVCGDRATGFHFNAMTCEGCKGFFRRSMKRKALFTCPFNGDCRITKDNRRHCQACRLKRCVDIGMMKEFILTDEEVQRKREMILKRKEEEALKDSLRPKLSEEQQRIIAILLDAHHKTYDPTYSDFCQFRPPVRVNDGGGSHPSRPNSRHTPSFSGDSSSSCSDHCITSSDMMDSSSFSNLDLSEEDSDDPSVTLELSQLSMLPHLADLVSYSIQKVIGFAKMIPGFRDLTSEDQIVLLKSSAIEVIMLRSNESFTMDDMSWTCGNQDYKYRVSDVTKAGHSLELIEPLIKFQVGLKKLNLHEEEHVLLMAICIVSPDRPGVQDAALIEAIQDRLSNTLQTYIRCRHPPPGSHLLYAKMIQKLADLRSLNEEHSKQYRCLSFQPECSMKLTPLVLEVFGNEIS
UniProt Q03181, sequence (Q03181 whole entry, looked up): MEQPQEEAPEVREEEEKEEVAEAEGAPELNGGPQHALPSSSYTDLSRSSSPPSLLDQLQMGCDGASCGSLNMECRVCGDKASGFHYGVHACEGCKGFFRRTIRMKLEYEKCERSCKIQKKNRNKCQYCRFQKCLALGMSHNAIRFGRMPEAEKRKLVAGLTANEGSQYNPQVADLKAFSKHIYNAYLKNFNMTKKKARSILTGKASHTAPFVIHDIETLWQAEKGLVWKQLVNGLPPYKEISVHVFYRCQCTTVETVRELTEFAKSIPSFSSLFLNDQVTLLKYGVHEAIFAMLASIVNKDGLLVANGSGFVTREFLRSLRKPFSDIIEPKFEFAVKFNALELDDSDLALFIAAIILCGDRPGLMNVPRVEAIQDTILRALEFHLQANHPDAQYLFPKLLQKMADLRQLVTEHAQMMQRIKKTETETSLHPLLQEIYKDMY

In the case of O=C(Nc1ncc([N+](=O)[O-])s1)c1cccs1, the Potency [1] is reported as active: 2.98 µM, the Potency [2] is reported as “inactive” and the activation [3] is reported as inconclusive: -15.5%. For the same molecule, the ratio activity, negative = inhibition [4] was inconclusive: -36.7%, the Potency [5] was inconclusive: 3.76 µM [cytotoxic, full curve] and the Potency [6] was inconclusive: 26.6 µM [rising, partial curve]. The Potency [7] was inconclusive: 18.8 µM [cytotoxic, partial curve, poor fit], the Potency [8] was inconclusive: 8.41 µM [cytotoxic, full curve] and the Potency [9] was inconclusive: 8.41 µM [cytotoxic, full curve]. For the same molecule, the Potency [10] was inconclusive: 3.76 µM [cytotoxic, full curve], the Potency [11] was inconclusive: 9.44 µM [falling, full curve] and the Potency [12] was inconclusive: 18.8 µM [cytotoxic, partial curve].
For CC(C)OC(=O)c1cc(C(=O)OC(C)C)cc([N+](=O)[O-])c1, the Potency [1] was inconclusive: 42.6 µM [activator], the Potency [3] was inconclusive: 56.2 µM [fluorescent, partial curve, poor fit] and the Potency [4] was inconclusive: 63.1 µM [fluorescent]. For the same molecule, the Potency [5] was inconclusive: 4.97 µM [rising, full curve], the activation [6] was inconclusive: -19.5% [phenotype inactive] [at 94.8 µM] and the Potency [7] was “inactive”. The Potency [8] was inconclusive: 20 µM [cytotoxic, single point], the Potency [13] was inconclusive: 0.282 µM [phenotype inactive, full curve, poor fit] and the Potency [9] was inconclusive: 0.355 µM [cytotoxic, full curve, poor fit]. For the same molecule, the ratio activity, negative = inhibition [14] was inconclusive: -15% [at 80.4 µM], the Potency [10] was inconclusive: 50.1 µM [rising, partial curve, poor fit] and the Potency [15] was inconclusive: 50.1 µM [rising, partial curve, poor fit]. The Potency [16] was inconclusive: 2 µM [activator, full curve, poor fit].
